Screen size: about 5,400 compounds; about 190 (3.5%) showed an effect of 50% or more. This is one part of the list.

The assay relates to Vero-E6. In words: primary screen, phospholipidosis by LipidTOX staining; higher = more effect of the substance. The note with it: 10 µM. In outline:
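Drug-induced phospholipidosis detected with HCS LipidTOX Red reagent in Vero-E6 cells. Compounds tested at 10 μM, with amiodarone (10 μM) as positive control and DMSO (0.1 v/v %) as vehicle.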
In the case of `O=C1c2ccccc2-c2n[nH]c3cccc1c23`, the result_ITMP is -1.5%.
To `CNC(=O)c1ccc(N2C(=S)N(c3cnc(C#N)c(C(F)(F)F)c3)C(=O)C23CCC3)cc1F` belongs 0.9%; to `N#C[C@H](O[C@@H]1O[C@H](CO[C@@H]2O[C@H](CO)[C@@H](O)[C@H](O)[C@H]2O)[C@@H](O)[C@H](O)[C@H]1O)c1ccccc1`, -2.54%.
To `CC[C@@H](CO)NC(=O)[C@@H]1C=C2c3cccc4c3c(cn4C)C[C@H]2N(C)C1` belongs 13.3%.
With `CN(C(=O)/C=C/c1ccoc1)[C@@H]1CC[C@@]2(O)[C@H]3Cc4ccc(O)c5c4[C@@]2(CCN3CC2CC2)[C@H]1O5`, the result_ITMP is on record as -1.52%.
To `COc1ccnc(CS(=O)c2nc3ccc(OC(F)F)cc3[n-]2)c1OC` (stereo not drawn) belongs -1.1%.
To `CC(C)CNc1nc(-c2cccc3ncccc23)cn2c(-c3ccc(C(=O)NC4CC4)cc3)cnc12` belongs -2.15%; to `N[C@@H](C(=O)O)c1ccc(O)c(C(=O)O)c1`, -1.84%; to `CCn1cc(C(=O)O)c(=O)c2cc(F)c(N3CCNCC3)cc21`, -0.64%.
As for `C[C@@H]1CCC[C@H](C)N1NC(=O)c1ccc(Cl)c(S(N)(=O)=O)c1`, the result_ITMP is recorded as 3.56%.
Regarding `c1ccc(N2CCN(CCCOc3ccc4c(c3)OCO4)CC2)cc1`, the result_ITMP was -1.49%.
In the case of `C[C@H](/C=C/[C@H](C)C(C)(C)O)[C@H]1CC[C@H]2/C(=C/C=C3C[C@@H](O)C[C@H](O)C3)CCC[C@]12C`, the result_ITMP is -0.26%.
To `CN1C(=O)CN=C(c2ccccc2)c2cc(Cl)ccc21` belongs -2.23%; to `Cc1nc2c(OCc3ccccc3)cccn2c1CC#N`, -0.79%.
To `CCOC(=O)C1=C(C)NC(C)=C(C(=O)OC)C1c1cccc([N+](=O)[O-])c1` (stereo not drawn) belongs -6.48%; to `Nc1ncnc2c1c(-c1cccc(OCc3ccccc3)c1)cn2C1CC(CN2CCCC2)C1` (stereo in doubt), 41.5%; to `C[N+](C)(C)CCOP(=O)([O-])OP(=O)([O-])OC[C@H]1O[C@@H](n2ccc(N)nc2=O)[C@H](O)[C@@H]1O`, 10.2%.
`Cn1cnc2nc(O)nc(O)c21`: the result_ITMP was determined as 0.82%.
Regarding `CCC[C@@H]1C[C@@H](C(=O)N[C@H]([C@H]2O[C@H](SC)[C@H](O)[C@@H](O)[C@H]2O)[C@H](C)O)N(C)C1`, the result_ITMP is given as -3.49%.
Consider `CC(C)C[C@H](NC(=O)CNC(=O)c1cc(Cl)ccc1Cl)B1OC(=O)CC(CC(=O)O)(C(=O)O)O1` (stereo partly drawn), for which the result_ITMP is given as -5.86%.
With `CCCC[C@]1(CC)CS(=O)(=O)c2cc(CNC(CC(=O)O)CC(=O)O)c(OC)cc2[C@@H](c2ccccc2)N1` the figure was -0.48%.
